PubChem BioAssay AID686979 (National Center for Advancing Translational Sciences (NCATS), 2013)
About 50,000 (12%) of roughly 420,000 compounds were called active. This list was built around the results that the source calls inconclusive (neither active nor inactive); the mix of calls is not that of the screen. The call rests on the fitted dose curve; in most records, active means well fitted inhibition curve with a large enough effect; inconclusive means small, poorly fitted or top-dose-only effect; inactive means flat fitted curve, though single readings scatter. Potencies of inconclusive entries are left out as doubtful fits.

test: qHTS for Inhibitors of human tyrosyl-DNA phosphodiesterase 1 (TDP1): qHTS in cells in presence of CPT; conditions: chicken DT40 Tdp1-/-;hTDP1 cells + 20 nM CPT, ATP luminescence, 48 h; activity change, negative = growth inhibition: at 46.2 µM (top of the series) unless noted; further: nearly all actives have a fitted effect of over 55% in size
How it was run: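 Chicken DT40 Tdp1-/- cells complemented with human TDP1, 400 cells/well, exposed to compounds plus 20 nM camptothecin for at least 48 h at 37 C; viability read as ATP content by CellTiter-Glo luminescence.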
On the % scale 0 is the no-effect control and ±100 the full control effect; potency means the concentration at half of the fitted maximal effect; tags describe the fitted curve by direction and shape.

Row | Compound | Potency | activity change, negative = growth inhibition
1 | O=C(NC1CCCCC1)C(c1ccncc1)N(Cc1ccc2c(c1)OCO2)C(=O)c1cnsn1 (centres undefined) | inconclusive [inhibitor, partial curve, poor fit] | 
2 | FC(F)(F)C(F)(F)c1nc2nc(Cl)c(Cl)nc2[nH]1 | inconclusive [inhibitor, single point] | 
3 | COc1ccccc1C1/C(=C(/O)c2cnn(-c3ccccc3)c2C)C(=O)C(=O)N1CCN(C)C (centres undefined) |  | inactive: -10.8%
4 | CC(C)CCNC(=O)c1cc2cc(S(=O)(=O)N3CCCCC3)ccc2n1C | inconclusive [inhibitor, single point] | 
5 | Cn1c(=O)oc2cc(S(=O)(=O)N3CCCC(C(=O)NCc4ccc(F)cc4)C3)ccc21 (centres undefined) | inconclusive [inhibitor, partial curve, poor fit] | 
6 | CN(C)CCN(C(=O)c1ccc(S(=O)(=O)N2CCc3ccccc32)cc1)c1nc2ccc(F)cc2s1 |  | inconclusive: -31.4% [inhibitor]
7 | CSc1ccc(CN(C)C(=O)COc2ccc(C(=O)c3ccccc3)cc2)cc1 | inconclusive [inhibitor, single point] | 
8 | COc1ccc(/C=N/NC(=O)c2ccncc2)cc1CSc1nc2ccccc2s1 | inconclusive [inhibitor, single point] | 
9 | Cc1cc(C)c(C)c(OCC(O)CN2CCN(c3ccccn3)CC2)c1 (centres undefined) | inconclusive [inhibitor, single point] | 
10 | O=C(COC(=O)/C=C/c1ccccc1[N+](=O)[O-])NCc1ccco1 |  | inactive: -5.44%
11 | Cc1ccc(NC(=O)c2cc3c([nH]c2=O)CC(C)(C)CC3=O)cc1 | inconclusive [inhibitor, single point] | 
12 | CCCN(CCC)C(=O)c1cc2c(=O)[nH]c3ccc(C)cc3c2s1 | inconclusive [inhibitor, single point] | 
13 | CCOC(=O)c1sc2nc(N3CCOCC3)c3c(c2c1N)CC(C(C)C)OC3 (centres undefined) | active: 8.2 µM | 
14 | COc1ccc(C)cc1NC1=C(Cl)C(=O)N(C2CCCCC2)C1=O | inconclusive [inhibitor, single point] | 
15 | CN(C)c1ccc(C=NCC2COc3ccccc3O2)cc1 (centres undefined) |  | inactive: 2.05%
16 | CCC(=O)N1c2ccccc2CC1C(=O)NCCc1ccccc1 (centres undefined) |  | inactive: -12.8%
17 | O=C(NC1CCN(CCc2c[nH]c3ccccc23)CC1)c1ccccc1 | inconclusive [inhibitor, single point] | 
18 | O=C(NCCc1ccccc1Cl)c1sc2ncccc2c1-n1cccc1 | active: 23.1 µM | 
19 | NC(=S)Nc1ccc(Cl)c(Cl)c1 | active: 11.6 µM | 
20 | COc1cccc(Cn2nnc3c(=O)[nH]c(C4CCN(C(=O)c5ccccc5Cl)CC4)nc32)c1 | inconclusive [inhibitor, single point] | 
21 | COc1ccc(CNC(=O)CCCN2C(=O)COc3ccc(C)cc32)cc1 | inconclusive [inhibitor, single point] | 
22 | CCOC(=O)c1c(S(=O)(=O)N2CCc3ccccc32)c(C)n(C)c1C | active: 23.1 µM | 

Row | Compound | Potency | activity change, negative = growth inhibition
23 | CCOC(=O)c1ccc(CN2CCCC(C)(C(=O)NCCOC)C2)cc1 (centres undefined) | inconclusive [inhibitor, single point] | 
24 | Cc1ccc(N2CCN(C(=O)c3cnc(N4CCCCC4)c4ccccc34)CC2)c(C)c1 | inconclusive [inhibitor, single point] | 
25 | O=C(COc1ccc(Cl)cc1)Nc1cccc(S(=O)(=O)NC2=NCCCCC2)c1 | inconclusive [inhibitor, single point] | 
26 | CCOc1ccccc1C(=O)OCC(=O)Nc1cccc(S(=O)(=O)N2CCCC2)c1 | active: 20.6 µM | 
27 | O=C(CSc1ccc(-c2ccco2)nn1)Nc1ccc(F)cc1F | inconclusive [inhibitor, single point] | 
28 | O=C(NCc1ccccc1Br)c1cnc2sc(N3CCCCCC3)nn2c1=O | active: 23.1 µM | 
29 | CCC(CC)NC(=O)CO/N=C/c1ccc(Cl)cc1Cl | inconclusive [inhibitor, partial curve, poor fit] | 
30 | CCOCCCNC(=S)NCCCNc1nc2c(C)c(C)ccc2cc1C#N | inconclusive [inhibitor, single point] | 
31 | O=S(=O)(c1ccc(F)cc1)N1CCN(S(=O)(=O)c2cccs2)CC1 |  | inactive: -3.67%
32 | CC(C)N1CCC1(C)C(=O)Nc1cccc2ccccc12 (centres undefined) | inconclusive [inhibitor, single point] | 
33 | CCN(CC)S(=O)(=O)c1ccc(N2CCOCC2)c(NC(=O)COc2ccc(Cl)cc2)c1 | inconclusive [inhibitor, single point] | 
34 | Cc1c(C(=O)O)sc(S(=O)(=O)N2CCN(C(=O)CC(C)c3ccccc3)CC2)c1C(=O)O (centres undefined) | inconclusive [inhibitor, single point] | 
35 | CN(C)c1ccc(C(=S)N2CCCCC2)cc1Br |  | inactive: 1.19%
36 | Cc1ccc(C(=O)OCC(=O)c2c[nH]c3ccccc23)cc1S(=O)(=O)N1CCOCC1 | inconclusive [inhibitor, single point] | 
37 | CCn1c(NC(=O)/C=C/c2ccc(F)cc2)nc2ccccc21 | inconclusive [inhibitor, single point] | 
38 | COc1cc2ncnc(NCc3ccccc3C)c2cc1OC | inconclusive [inhibitor, partial curve] | 
39 | COc1cccc(C(=O)NCCS(=O)(=O)NC2CCCC2)c1 |  | inactive: -5.8%
40 | C[C@H]1CN([C@@H](C)CO)C(=O)CCCn2nncc2CO[C@@H]1CN(C)Cc1cccc(C(F)(F)F)c1 | active: 20.6 µM | 
41 | COc1ncnc2c1ncn2CCCNCC(c1ccccc1)c1ccccc1 | active: 23.1 µM | 
42 | Cc1cc(C)nc(N/N=C/c2ccc([N+](=O)[O-])o2)n1 | active: 23.1 µM | 
43 | CC(C)Cn1nc(C(=O)N2CCc3ccccc32)c2ccccc2c1=O | inconclusive [inhibitor, single point] | 
44 | COc1cc(OC)c(NC(=O)CCCn2nc(C)c3c(C)n(-c4ccccc4)nc3c2=O)cc1Cl | inconclusive [inhibitor, full curve] | 
